Out of some 45,000 compounds screened, about 65 (0.1%) were called active. The call rests on the fitted dose curve; in most records, active means well fitted activation curve with a large enough effect; inconclusive means small, poorly fitted or top-dose-only effect; inactive means no such curve, though single readings can be large or run the other way. The list shows a part of the results.

The target in this test is Galactocerebrosidase (Homo sapiens) (UniProt P54803). The test can be described thus: A Novel Cell-Based Assay to Identify Small Molecules for B -Galactocerebrosidase. Further: 0% is about no effect; nearly all actives have a fitted effect of over 65% in size. The following applies: 145M-Twi-hGALC-G270D cells (Twitcher mouse brain line with human GALC G270D), HMU-beta-Gal fluorescence, 48 h; series mostly up to 57.5 µM; activation: at the top concentration. The method in brief: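 Fluorogenic HMU-b-Gal hydrolysis (0.1 mM final, pH 5.2 citrate-phosphate with 1 mg/mL sodium taurocholate; carbonate stop buffer) measures mutant GALC activity after compound treatment of live 145M-Twi Twitcher brain cells stably carrying human GALC-G270D, with wild-type GALC line alongside; activation sought.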
Chain of UniProt P54803 (P54803 whole entry, looked up): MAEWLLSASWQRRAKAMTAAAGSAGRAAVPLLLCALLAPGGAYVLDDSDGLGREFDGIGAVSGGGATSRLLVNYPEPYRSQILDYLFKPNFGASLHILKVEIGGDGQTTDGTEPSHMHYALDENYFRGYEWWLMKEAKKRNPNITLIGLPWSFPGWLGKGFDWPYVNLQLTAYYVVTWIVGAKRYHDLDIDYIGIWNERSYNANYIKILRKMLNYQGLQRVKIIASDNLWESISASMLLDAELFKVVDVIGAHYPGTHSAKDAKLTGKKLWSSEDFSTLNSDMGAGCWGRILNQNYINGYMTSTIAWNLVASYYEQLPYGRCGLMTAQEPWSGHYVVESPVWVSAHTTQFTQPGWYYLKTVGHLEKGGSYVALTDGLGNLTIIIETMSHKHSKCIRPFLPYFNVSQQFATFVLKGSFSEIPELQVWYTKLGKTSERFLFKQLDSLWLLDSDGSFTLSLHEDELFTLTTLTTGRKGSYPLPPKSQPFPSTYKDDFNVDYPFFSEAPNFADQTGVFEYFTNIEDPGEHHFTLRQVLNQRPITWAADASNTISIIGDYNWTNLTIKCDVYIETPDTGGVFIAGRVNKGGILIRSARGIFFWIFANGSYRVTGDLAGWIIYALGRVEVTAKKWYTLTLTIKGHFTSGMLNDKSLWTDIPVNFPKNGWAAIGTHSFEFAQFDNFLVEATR
For the compound `COc1ccc(-c2noc(-c3nnn(-c4ccc(C(C)C)cc4)c3C)n2)cc1OC`, the “activation” value was inactive: -7.89%.
In the case of `Cc1cc(Nc2cccc(Cl)c2)nc2ccc(NC(=O)c3cccc(N(C)C)c3)cc12`, the “activation” value was inactive: -2.62%.
For the compound `CCOC(=O)c1ccc(NC(=O)CN2Cc3ccccc3C2=O)cc1`, the “activation” value was inactive: -10.6%.
On to `COc1ccccc1C(=O)Nc1onc2c1CCCC2`, for which the “activation” value is inactive: -6.44%.
Next, `CCOc1ccccc1C(=O)Nc1ccc2nc3c(c(Nc4ccc(OC)c(OC)c4)c2c1)CCCC3`: inactive: -7.32%.
As to `O=C(NCc1ccc(F)cc1)c1ccc2c(c1)nc1n2CCCCC1`, the “activation” value is inactive: -22.8%.
Consider `Cc1ncc(CO)c2c1Oc1nc(-c3ccc(F)cc3)nc(SCc3ccc(F)cc3Cl)c1C2`, for which the “activation” value is inactive: -14.1%.
Consider `O=S(=O)(c1ccc2nc(Nc3cccc(F)c3)ccc2c1)N1CCCC1`, for which the “activation” value is inactive: -20.5%.
For the compound `CCOc1ccc(-c2cccc(NS(=O)(=O)c3ccccc3C(F)(F)F)c2)nn1`, the “activation” value is inactive: -11.9%.
Next, `Cc1ccc(NC(=O)Cn2cc(C(=O)c3ccco3)c3ccccc32)cc1`: inactive: -21.8%; `Cc1ccc(S(=O)(=O)NCC(Nc2cccc(Cl)c2)c2ccccc2)cc1` (stereo unspecified): inactive: -33%.
Next, `Cc1ccccc1Cn1c2ccccc2c2cnn(CC(=O)N3CCC(C)CC3)c(=O)c21`: inactive: -38%.
Next, `CCn1cc(C(=O)N2CCN(c3ccc(OC)cc3)CC2)c2cc(OC)c(OC)cc2c1=O`: inactive: -11.2%; `CCOc1ccccc1C1C(C(=O)Nc2ccccc2)=C(C)Nc2c(C(=O)Nc3ccc(F)cc3)cnn21` (stereo unspecified): inactive: -13.4%.
As for `COc1ccc(-c2cc3nccc(-c4cc(Cl)c(C)cc4O)n3n2)cc1`, the “activation” value was inactive: -14%.
In the case of `CCn1c(C(=O)N2CCCC(C(=O)N3CCN(c4ccccc4)CC3)C2)cc2sccc21` (stereo unspecified), the “activation” value is inactive: -10.7%.
Next, `CCc1ccc(NC(=O)N2CCC(N3CCN(Cc4ccc(C)cc4)C(=O)C3=O)CC2)cc1`: inactive: -11%.
For the compound `O=c1cc(-c2ccccc2)n2c(SCc3ccc(Br)cc3)nnc2[nH]1`, the “activation” value was inactive: -4.78%.
Consider `CCOc1ccccc1NC(=O)CSC1=Nc2ccccc2C2=NC(CC(=O)NCc3ccc4c(c3)OCO4)C(=O)N12` (stereo unspecified), for which the “activation” value is inactive: -15.9%.
With `Cc1nn(CC(=O)NCCc2ccccc2)c(=O)c2c1sc1ccccc12`, the “activation” value was inactive: -30.5%.
As to `O=C(Cc1ccccc1)Nc1nnc2n1CCS2`, the “activation” value was inactive: -23.4%.
Consider `CCN(Cc1ccccc1)Cc1c(O)ccc2oc(C)c(C(=O)Nc3ccccc3C)c12`, for which the “activation” value was inactive: 1.95%.
On to `CC(C)(C)c1ccc(C(=O)N2CCN(CCc3ccccn3)CC2)cc1`, for which the “activation” value was inactive: -14.2%.
Take `CC(=O)N1c2ccc(S(=O)(=O)N(C)CC(=O)N(Cc3ccccc3)C(C)C)cc2CC1C` (stereo unspecified): the “activation” value is inactive: -17.5%.
In the case of `CCC(C)NC(=O)Cn1c(=O)n(-c2ccc(C)c(C)c2)c(=O)c2c(C)c(C(=O)N(CC)CC)sc21` (stereo unspecified), the “activation” value was inactive: -15%.
As for `Cc1ccc(S(=O)(=O)NCC(c2ccc(N(C)C)cc2)N2CCc3ccccc32)cc1` (stereo unspecified), the “activation” value was inactive: -15%.
For `Cc1cc2nc(N(Cc3cccnc3)C(=O)c3ccc(Cl)s3)sc2cc1C`, the “activation” value was inactive: 0.324%.
For the compound `CCCCSCCCNC(=O)c1c[nH]c2ccc(S(=O)(=O)Nc3cccc(OC)c3)cc2c1=O`, the “activation” value is inactive: -2.69%.
With `COc1ccc(-n2ccnc(NCCc3ccc(Cl)cc3)c2=O)cc1OC`, the “activation” value was inactive: -8.06%.
Take `COc1ccccc1CN1C(=O)C(=O)c2cccc(C)c21`: the “activation” value is inactive: -26.9%.
With `COc1ccc2c(c1)c(=O)c(C(=O)c1ccccc1)cn2CC(=O)Nc1ccc2c(c1)OCO2`, the “activation” value is inactive: -11%.
Next, `COc1ccc2c(CNCCc3ccc(SC)cc3)c(C(=O)O)n(Cc3ccc(F)cc3)c2c1`: inactive: -16%; `COc1ccc(Cn2cc(S(=O)(=O)c3ccc(C)cc3)c(=O)c3cc(F)ccc32)cc1`: inactive: -15.4%; `Cc1nc(-c2ccc(S(=O)(=O)Nc3cc(Cl)ccc3C)cc2)co1`: inactive: -10.6%.
Consider `COc1ccc(CCNC(=O)c2ccc3c(c2)CCN3S(C)(=O)=O)cc1OC`, for which the “activation” value was inactive: -8.71%.
As to `Cc1ccc(CNC(=O)CCc2cn(C)c3ccccc23)cc1`, the “activation” value is inactive: -8.58%.
On to `NS(=O)(=O)c1ccc(CCNC(=O)C2CCN(c3ncnc4c3nc3n4CCCCC3)CC2)cc1`, for which the “activation” value is inactive: -24.2%.
With `CCC(Sc1nc2c(sc3ccccc32)c(=O)n1CCc1ccc(OC)c(OC)c1)C(=O)N(CC)CC` (stereo unspecified), the “activation” value was inactive: -12.4%.
As for `CCC(CC)C(=O)Nc1nnc(S(=O)(=O)N2CCCCCC2)s1`, the “activation” value was inactive: -18.8%.
Next, `CCS(=O)(=O)c1ncc(Cl)c(C(=O)N2CCN(c3ccc(OC)cc3)CC2)n1`: inactive: -14.6%.
As for `Cc1cccc(CN2C(=O)c3ccccc3Sc3ccc(C(=O)NCc4ccco4)cc32)c1`, the “activation” value is inactive: -0.0203%.
Next, `CCOc1ccc(NC(=O)c2oc3ccccc3c2NC(=O)COc2cccc(OC)c2)cc1`: inactive: -12.2%; `O=c1c2ccccc2nc(/C=C/c2cccc3ccccc23)n1-c1ccc(F)cc1F`: inactive: -15%.
As for `COc1ccc(CNC(=O)Cc2c(C)c3cc4c(C)coc4cc3oc2=O)cc1OC`, the “activation” value was inactive: -10.6%.
Turning to `COc1ccc(C2c3[nH]c4ccccc4c3CCN2C(=O)CCC2CCCC2)cc1` (stereo unspecified), the “activation” value was inactive: -8.03%.
With `CCN(CC)c1ccc(NC(=O)c2cc(C)nc3c2c(C)nn3-c2ccc(C)cc2)c(C)c1`, the “activation” value is inactive: -21.6%.
`CC(Sc1nccn1C)C(=O)Nc1ccccc1C#N` (stereo unspecified): the “activation” value is inactive: -14.5%.
Next, `Cc1cn2c(=O)cc(COC(=O)c3ccc(NC(=O)c4ccc(F)cc4)cc3)nc2s1`: inactive: -9.17%; `CCOC(=O)c1ccc(NC(=O)c2cnn3c(=O)c4c(n(CC)c23)CCN(Cc2ccc(OC)cc2)C4)cc1`: inactive: -27.4%; `COC(=O)c1ccc(Nc2ncnc3c2cnn3C)cc1`: inactive: -15.3%.
Turning to `CC1CCN(S(=O)(=O)N2CCC(C(=O)NCc3ccccc3Cl)CC2)CC1`, the “activation” value was inactive: -24.3%.
Take `O=C(CNC(=O)c1ccccc1)OCc1cc(=O)n2nc(C3CCCCC3)sc2n1`: the “activation” value is inactive: -3.42%.
As to `COc1ccc(N2CCN(C(=O)CSc3nc(-c4ccc(C(C)C)cc4)no3)CC2)cc1`, the “activation” value is inactive: -15.4%.
Regarding `Cc1ccc2sc(N(Cc3cccnc3)C(=O)CCS(=O)(=O)c3ccccc3)nc2c1C`, the “activation” value is inactive: -5.31%.
`CCN(CC)C(=O)c1sc2c(c1C)c(=O)n(Cc1ccccc1)c(=O)n2Cc1ccccc1C`: the “activation” value was inactive: -3.18%.
Next, `Cc1ccsc1CCN1C(=O)N(c2ccccc2)C(=O)C1CC(=O)Nc1ccc(Cl)cc1` (stereo unspecified): inactive: -30.3%; `COc1ccc(-c2nc3scc(CCNS(=O)(=O)c4ccc(Oc5ccccc5)cc4)n3n2)cc1OC`: inactive: -1.45%; `CCN(CC)C(=O)c1sc2c(c1C)c(=O)n(-c1ccc(C)c(C)c1)c(=O)n2Cc1cc(=O)n2ccccc2n1`: inactive: -1.8%.
Turning to `Cc1ncc([N+](=O)[O-])n1CC(C)O` (stereo unspecified), the “activation” value is inactive: -7.96%.
Consider `COc1ccc(-c2nc3scc(CCNS(=O)(=O)c4ccc5c(c4)OCCO5)n3n2)cc1OC`, for which the “activation” value was inactive: -12.1%.
Next, `O=C(NCc1ccc(F)cc1Cl)c1cc(=O)[nH]c2ccc(S(=O)(=O)N3CCCCC3)cc12`: inactive: 0.543%; `COc1ccc(CNC(=O)Cc2c(C(=O)O)c(C)cn2C)cc1`: inactive: -9.91%.
`Clc1ccc(CN2CCN(c3ncnc4sc5c(c34)CCCC5)CC2)cc1Cl`: the “activation” value is inactive: -25.7%.
Regarding `O=C(Cn1cc(C(=O)C2CCCCC2)c2ccccc21)Nc1ccccc1Cl`, the “activation” value is inactive: -15.7%.
In the case of `C/C=C(/C(=C/C)c1ccc(O)cc1)c1ccc(O)cc1`, the “activation” value was inactive: -11.2%.
Next, `Cc1cc(C)cc(OCCSc2nc3ccc(NC(=O)c4cccs4)cc3s2)c1`: inactive: -29.2%; `CCOc1ccc(C(=O)Nc2c(C(=O)Nc3ccccc3OC)oc3ccccc23)cc1OCC`: inactive: -8.85%.
For the compound `Cc1c(-c2ccccc2)c(=O)oc2ccc(OC(=O)N3CCOCC3)cc12`, the “activation” value was inactive: -18.4%.
In the case of `O=C(CSc1n[nH]c(-c2ccccc2Cl)n1)NCCCc1ccccc1`, the “activation” value is inactive: -13.6%.
In the case of `COc1cc(-c2cc(OC)c3c(C)oc(C)c3c(=O)c2)ccc1OC(=O)c1ccc(C)cc1`, the “activation” value is inactive: -12.8%.
Consider `CCOc1ccc(NC(=O)CSC2=Nc3ccccc3C3=NC(CC(=O)NCc4cccs4)C(=O)N23)cc1` (stereo unspecified), for which the “activation” value was inactive: -18.5%.
Next, `CC(=O)c1cccc(NC(=O)C2CCN(c3ncnc4c3nc3n4CCCCC3)CC2)c1`: inactive: 5.5%.
For `O=C(O)c1ccccc1OP(=O)(O)O`, the “activation” value is inactive: -12.9%.
Regarding `O=C1c2ccccc2-c2onc3c(N4CCN(C5CCCCC5)CC4)cc(NCCO)c1c23`, the “activation” value is inactive: -13.6%.
Turning to `Cc1ccc(-c2cn3c(n2)sc2cc(C(=O)NCCCN4CCCCCC4)ccc23)cc1`, the “activation” value was inactive: -9.84%.
Turning to `CC(CCc1ccccc1)NC(=O)Cn1c(=O)nc(-c2ccccc2)c2cc(Cl)ccc21` (stereo unspecified), the “activation” value is inactive: -10.5%.
Next, `CCc1ccc2oc(C(=O)N(Cc3ccc(N(C)C)cc3)Cc3ccco3)c(C)c2c1`: inactive: -20.9%; `CC1=C(c2ccc(C)c(C)c2)S(=O)(=O)N=C1N1CCC(C(=O)NC(C)c2ccccc2)CC1` (stereo unspecified): inactive: -1.01%; `Cc1nc2ccccn2c(=O)c1NC(=O)c1cccc(F)c1`: inactive: -1.07%.
As for `COc1ccc(NC(=O)/C=C\C(=O)N(c2ccc(C(C)C)cc2)C(C(=O)NCc2ccco2)c2ccc(C)cc2)cc1` (stereo unspecified), the “activation” value was inactive: -20.3%.
Next, `COc1cccc(Nc2nc3cc(C)ccc3nc2NS(=O)(=O)c2ccc(Cl)cc2)c1`: inactive: -16.5%; `COC(=O)c1ccccc1NC(=O)Cn1cnc2sc(C)c(S(=O)(=O)N3CCC(C)CC3)c2c1=O`: inactive: -23.6%.
With `CCOC(=O)c1cccc(NC(=O)c2ncoc2-c2ccco2)c1`, the “activation” value was inactive: -0.0082%.
Take `Cc1cc(OCC(=O)NCCc2nc3ccccc3[nH]2)cc(C)c1Cl`: the “activation” value was inactive: -3.43%.
Next, `Cc1ccc(CNC(=O)Cn2c(SCC(=O)Nc3ccc(F)cc3)nc3ccccc32)cc1`: inactive: -13.5%.
Next, `COc1cccc(C(=O)NCCc2csc3nc(-c4ccccc4F)nn23)c1OC`: inactive: -11.3%; `Cc1ccccc1N(C)S(=O)(=O)c1nnc(NC(=O)c2ccco2)s1`: inactive: -11.2%.
Next, `CCOC(=O)c1cc(-c2ccc(OC)cc2)n(CCC(=O)NCCc2ccccc2)c1C`: inactive: -6.56%; `COc1ccc(CCNC(=O)c2ccc3c(c2)sc2nc(-c4ccccc4)cn23)cc1OC`: inactive: -17.8%.
With `Cc1ccc(NC(=O)C2(C)Cc3ccccc3C(=O)O2)c(C)c1` (stereo unspecified), the “activation” value is inactive: -7.92%.
`Cc1ccc(S(=O)(=O)C(CNC(=O)c2c(F)cccc2F)c2ccco2)cc1` (stereo unspecified): the “activation” value is inactive: 1.63%.
Next, `Cc1ccc(CNC(=O)C(C)n2c(=O)cc(C(F)(F)F)c3c(C)nn(C)c32)cc1` (stereo unspecified): inactive: -37.1%; `Cc1cccc(C(=O)N2CCc3cc(CNC(=O)c4cc5ccccc5[nH]4)ccc32)c1`: inactive: -21%; `CCn1nc(C)c(CCN(C)C(=O)Nc2cccc(Cl)c2C)c1C`: inactive: -1.61%.
As to `O=S(=O)(c1ccccc1)c1nc(-c2ccccc2Cl)oc1N1CCCCCC1`, the “activation” value was inactive: -7.32%.
As to `Cc1cc(C)c(S(=O)(=O)NCCS(=O)(=O)N2CCN(c3ccccc3)CC2)c(C)c1`, the “activation” value is inactive: -12.1%.

The record behind these values is PubChem BioAssay AID1159614 (National Center for Advancing Translational Sciences (NCATS), 2016).
